Experimental findings from paper PMC4336329 (PLoS ONE, 2015) are described below.

The campaign covered roughly 310,000 compounds. About 14,000 (4.5%) showed an effect of 50% or more. Effects have a minus sign here. The list shows a part of the results.
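Also: peak tail current of the secondary pulse compared with the same well before compound.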

Sequence of human ether-à-go-go-related gene (hERG) potassium channel (Q12809 whole entry, looked up): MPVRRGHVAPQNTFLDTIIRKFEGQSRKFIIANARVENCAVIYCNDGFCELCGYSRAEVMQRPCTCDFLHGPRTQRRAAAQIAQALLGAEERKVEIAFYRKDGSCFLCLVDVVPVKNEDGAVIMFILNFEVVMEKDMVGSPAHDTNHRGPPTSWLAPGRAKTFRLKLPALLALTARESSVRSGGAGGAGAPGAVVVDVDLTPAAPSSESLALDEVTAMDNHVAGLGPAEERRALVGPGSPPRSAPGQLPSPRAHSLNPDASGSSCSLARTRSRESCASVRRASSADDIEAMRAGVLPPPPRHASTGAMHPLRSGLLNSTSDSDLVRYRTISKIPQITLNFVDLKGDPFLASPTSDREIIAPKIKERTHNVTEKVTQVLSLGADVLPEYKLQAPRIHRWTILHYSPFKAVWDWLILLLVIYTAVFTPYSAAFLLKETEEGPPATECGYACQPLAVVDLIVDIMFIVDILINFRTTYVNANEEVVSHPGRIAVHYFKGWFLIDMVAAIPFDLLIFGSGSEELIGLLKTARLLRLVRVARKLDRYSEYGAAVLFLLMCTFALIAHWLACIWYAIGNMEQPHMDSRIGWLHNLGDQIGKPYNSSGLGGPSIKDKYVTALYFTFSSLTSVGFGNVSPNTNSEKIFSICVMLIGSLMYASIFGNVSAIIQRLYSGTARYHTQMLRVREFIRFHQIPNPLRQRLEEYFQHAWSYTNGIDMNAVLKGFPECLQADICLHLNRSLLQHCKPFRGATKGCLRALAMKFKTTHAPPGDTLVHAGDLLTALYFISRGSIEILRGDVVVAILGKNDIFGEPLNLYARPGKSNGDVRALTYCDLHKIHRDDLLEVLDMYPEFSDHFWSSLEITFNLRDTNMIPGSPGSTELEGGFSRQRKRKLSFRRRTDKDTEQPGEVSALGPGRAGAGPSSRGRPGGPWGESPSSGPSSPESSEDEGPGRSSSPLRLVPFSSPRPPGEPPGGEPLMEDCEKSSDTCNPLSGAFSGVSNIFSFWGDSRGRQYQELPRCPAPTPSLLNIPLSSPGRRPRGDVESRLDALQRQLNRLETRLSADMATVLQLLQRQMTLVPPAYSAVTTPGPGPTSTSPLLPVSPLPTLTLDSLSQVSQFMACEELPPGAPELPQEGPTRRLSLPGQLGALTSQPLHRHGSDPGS

This assay concerns the target human ether-à-go-go-related gene (hERG) potassium channel (human, UniProt Q12809). In words: primary screen, population patch clamp on CHO cells stably expressing hERG.
Regarding `COC(=O)c1[nH]c(C)c(/C(O)=C2\C(=O)C(=O)N(CCN3CCOCC3)C2c2ccco2)c1C` (stereo not shown), the “hERG current change (%, negative = inhibition) at 10uM” value was determined as 15.6%.
Turning to `O=C(Nc1cccc(OC(=O)c2ccco2)c1)c1ccco1`, the “hERG current change (%, negative = inhibition) at 10uM” value is given as 3.77%.
For the compound `CCOCCOc1nc2c(c(=O)n(C)c(=O)n2C)n1Cc1ccc(C)cc1`, the “hERG current change (%, negative = inhibition) at 10uM” value is listed as -10.1%.
With `O=C(O)CSc1sc(=S)sc1SCC(=O)O`, the “hERG current change (%, negative = inhibition) at 10uM” value turned out to be 13.7%.
The result for `COc1cccc(CNC(=O)CCC(=O)N2CCSc3ccccc32)c1OC` reads 4.66%; that for `CC(=O)C1(O)C(C)CC2C3CCC4CC(O)CCC4(C)C3=CCC21C` (stereo not shown), 12.3%.
The result for `CCOC(=O)N1CCc2c(sc3nc4n(c(=O)c23)N=C(C)CS4)C1` reads -5.12%; that for `COc1ccc(NC(=O)CNS(=O)(=O)c2cccs2)cc1`, -5.7%; that for `O=C(NCc1ccc2[nH]c3c(c2c1)CCCC3)c1ccc(S(=O)(=O)N2CCCCC2)cc1`, 16.7%.
Under `CN(C)C=O.O=C(/C=C/c1cccs1)Nc1ccc(N2CCOCC2)c(S(=O)(=O)Nc2cc(Cl)ccc2Cl)c1` stands 10.1%.
Regarding `COc1cc2ccccc2cc1C(=O)N1CCN(C)CC1.Cl`, the “hERG current change (%, negative = inhibition) at 10uM” value is -7.56%.
For the compound `O=C(NNC(=O)C1CC1c1ccccc1)c1ccccc1F` (stereo not shown), the “hERG current change (%, negative = inhibition) at 10uM” value is on record as 27.5%.
In the case of `Cc1ccc(NC(=O)CCc2nc3ccccc3c(=O)[nH]2)cc1S(=O)(=O)N1CCOCC1`, the “hERG current change (%, negative = inhibition) at 10uM” value was -27.2%.
For the compound `CCCC(CCC)C(=O)Nc1ccncc1`, the “hERG current change (%, negative = inhibition) at 10uM” value is on record as -6.67%.
On to `CC(=O)Nc1ccc(NS(C)(=O)=O)cc1`, for which the “hERG current change (%, negative = inhibition) at 10uM” value was 12.8%.
For `COC(=O)c1nc2ccc(N3CCOCC3)cc2c(C)c1C(=O)OC`, the “hERG current change (%, negative = inhibition) at 10uM” value turned out to be 7.43%.
In the case of `Cc1ccc(CNC(=O)Nc2ccc(C)cc2)cc1`, the “hERG current change (%, negative = inhibition) at 10uM” value is reported as 3.58%.
Turning to `CN1CCN(CCC(=O)Nc2ccc3c(c2)OCO3)CC1`, the “hERG current change (%, negative = inhibition) at 10uM” value came out at 1.57%.
For `Cc1cc(NC(=O)C2CCC2)n(-c2ccccn2)n1`, the “hERG current change (%, negative = inhibition) at 10uM” value is -5.34%.
Regarding `Cc1cccc(NC(=O)NC(=O)c2ccccc2)n1`, the “hERG current change (%, negative = inhibition) at 10uM” value was -7.58%.
On to `CCOc1ccccc1Nc1ncccc1C(=O)O`, for which the “hERG current change (%, negative = inhibition) at 10uM” value is 3.32%.
As for `CCOC1=CC(=O)N(Cc2ccccc2)C1`, the “hERG current change (%, negative = inhibition) at 10uM” value stood at 5.93%.
For the compound `NC(=O)CSc1ncnc2c1nnn2Cc1ccc(F)cc1`, the “hERG current change (%, negative = inhibition) at 10uM” value is 9.97%.
Turning to `COC(=O)[C@H]1C[C@@H](c2ccccc2)[C@H](C)C1(C)C`, the “hERG current change (%, negative = inhibition) at 10uM” value is given as 9.99%.
In the case of `CCOc1ccc2oc(C(=O)Nc3ccc(N4CCOCC4)cc3)c(C)c2c1`, the “hERG current change (%, negative = inhibition) at 10uM” value is 8.05%.
`CC(C)(C)OC(=O)CNC(=O)c1nc[nH]c1C(=O)N1CCN(c2ccccc2)CC1`: the “hERG current change (%, negative = inhibition) at 10uM” value is -4.58%.
On to `Cc1nnc(NC(=O)c2cc(-c3ccco3)nc3ccccc23)s1`, for which the “hERG current change (%, negative = inhibition) at 10uM” value was found to be 2.18%.
As to `Cc1cc(C(=O)CSc2nnc(-c3ccc(F)cc3)o2)c(C)n1CC1COc2ccccc2O1` (stereo not shown), the “hERG current change (%, negative = inhibition) at 10uM” value was determined as 16.2%.
`COc1ccc(C)cc1N(CC(=O)NC(C)c1ccccc1)S(C)(=O)=O` (stereo not shown): the “hERG current change (%, negative = inhibition) at 10uM” value is given as -3.86%.
Regarding `CCc1ccc(NC(=O)Nc2cc(C(=O)O)ccc2N2CC3CC(C2)c2cccc(=O)n2C3)cc1` (stereo not shown), the “hERG current change (%, negative = inhibition) at 10uM” value amounted to 20.4%.
With `Cn1c(SCC(=O)Nc2ccc(Br)cc2F)nnc1-c1ccco1`, the “hERG current change (%, negative = inhibition) at 10uM” value is on record as -26.7%.
In the case of `CC(C)CCOc1ccc(C(=O)C[N+]2(C)CCOCC2)cc1.[I-]`, the “hERG current change (%, negative = inhibition) at 10uM” value was 9.61%.
For `COC(=O)C1=C(C)N(CC2CCCO2)C(=O)C1` (stereo not shown), the “hERG current change (%, negative = inhibition) at 10uM” value amounted to 3.11%.
The result for `CN(Cc1cnn(C)c1)C(=O)C1CCC(=O)N(Cc2cccc(F)c2)C1` (stereo not shown) reads -49.8%; that for `CC1CCCCN1CC(O)COc1ccc(OCC(O)CN2CCCCC2C)cc1` (stereo not shown), 16.4%.
Regarding `Cc1cc(-c2nc(C)c(C(=O)NNS(=O)(=O)c3ccc(Cl)cc3Cl)s2)no1`, the “hERG current change (%, negative = inhibition) at 10uM” value is 2.71%.
The result for `Cc1ccc(OCC(=O)O/N=C(\N)c2ccccn2)cc1` reads 12%; that for `CCN1N=C(c2ccccc2)Cn2c1nc1ccccc12`, -19.6%; that for `CCCNC(=O)C1=C(C)C(=O)OC12CCC(C)CC2` (stereo not shown), 1.61%.
`Cc1ccc(NC(=O)C2CCN(S(=O)(=O)c3cccs3)CC2)cc1`: the “hERG current change (%, negative = inhibition) at 10uM” value is -22.4%.
The result for `C/C(=N/NC(=O)CNC(=O)c1ccccn1)c1ccccc1` reads 11.5%.
`O=C(O)c1ccc(CNC(=O)C23CC4CC(CC(C4)C2)C3)cc1`: the “hERG current change (%, negative = inhibition) at 10uM” value was 28.4%.
Under `Cc1ccc(S(=O)(=O)N(C)C)cc1NC(=O)COC(=O)C1CC1` stands 16.2%; under `Cc1[nH]c(C)c(S(=O)(=O)Nc2ccccc2Cl)c1C(=O)N1CCCC1`, 15.7%.
On to `Cc1cnc(C(=O)N2CCCC(C(=O)c3ccc(C(F)(F)F)cc3)C2)cn1` (stereo not shown), for which the “hERG current change (%, negative = inhibition) at 10uM” value is recorded as -17.7%.
As to `CCOC(=O)c1cnc(SCC(=O)Nc2ccc(NC(=O)CC)c(OC)c2)nc1N`, the “hERG current change (%, negative = inhibition) at 10uM” value is -1.97%.
In the case of `COc1ccc(-c2nc(CSCC(=O)N3CCC4(CC3)OCCO4)c(C)o2)cc1OC`, the “hERG current change (%, negative = inhibition) at 10uM” value is 13.1%.
As to `CSc1cccc(NC(=S)N(CCC(C)C)C2CCN(C(C)C)CC2)c1`, the “hERG current change (%, negative = inhibition) at 10uM” value is on record as -52.5%.
Consider `CCOC(=O)COc1ccccc1/C=C1\NC(=O)NC1=O`, for which the “hERG current change (%, negative = inhibition) at 10uM” value was -13.8%.
As for `CC(=O)Nc1nc2n(n1)C(c1ccc(F)cc1)C=C(c1ccccc1)N2` (stereo not shown), the “hERG current change (%, negative = inhibition) at 10uM” value is given as -9.63%.
Under `O=c1oc2ccccc2cc1-c1csc(Nc2ccc(O)cc2)n1` stands 17.8%; under `COc1ccc(C(=O)Nc2cccc(C(C)=O)c2)cc1S(=O)(=O)N1CCOCC1`, -5.82%.
Consider `CCOc1ccc(CO/N=C/c2c(C)[nH]c(=O)[nH]c2=O)cc1`, for which the “hERG current change (%, negative = inhibition) at 10uM” value is on record as 2.31%.
Regarding `CCOC(=O)C1CCN(c2ncnc3cc(OC)c(OC)cc23)CC1`, the “hERG current change (%, negative = inhibition) at 10uM” value is reported as -7.62%.
Consider `CCOC(=O)C(c1ccccc1)C(Nc1ccc(F)cc1)c1ccccn1` (stereo not shown), for which the “hERG current change (%, negative = inhibition) at 10uM” value is recorded as -6.07%.
Regarding `CC(O)[C@H]1CC[C@H]2[C@@H]3CC[C@H]4C[C@@H](O)CC[C@]4(C)[C@H]3C(=O)C[C@]12C` (stereo partly shown), the “hERG current change (%, negative = inhibition) at 10uM” value is recorded as -21.8%.
The result for `O=C(Nc1cc(Cl)ccc1N1CCOCC1)c1cc2ccccc2o1` reads 14.2%; that for `O=C1CCCC2=C1C(c1cccnc1)Nc1ccccc1N2` (stereo not shown), 5.41%.
